# Measurements taken from PubChem BioAssay AID886 (National Center for Advancing Translational Sciences (NCATS), 2007).
# Out of some 73,000 compounds screened, about 2,500 (3.4%) were called active. The shares of active, inactive and inconclusive entries below differ from those in the screen. Calls follow the shape of the dose curve; as a rule, active = well fitted inhibition curve with a large enough effect; inconclusive = small, poorly fitted or top-dose-only effect; inactive = no such curve, though single readings can be large or run the other way. Where the call is inconclusive, the potency comes from a doubtful curve fit. More than one record can exist for a structure, and the calls need not agree.
# Target: 3-hydroxyacyl-CoA dehydrogenase type-2 (Homo sapiens) (UniProt Q99714)
# UniProt Q99714, sequence (Q99714 whole entry, looked up): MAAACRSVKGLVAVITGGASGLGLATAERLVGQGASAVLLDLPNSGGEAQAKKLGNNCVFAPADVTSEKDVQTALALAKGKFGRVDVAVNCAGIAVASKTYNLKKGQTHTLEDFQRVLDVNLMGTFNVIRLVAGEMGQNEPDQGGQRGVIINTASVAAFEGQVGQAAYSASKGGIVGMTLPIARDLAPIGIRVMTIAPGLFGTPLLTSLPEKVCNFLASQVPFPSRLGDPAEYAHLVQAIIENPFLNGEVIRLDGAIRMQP
# UniProt Q99714, sequence (Q99714 whole entry, looked up): as above
# Assay: qHTS Assay for Inhibitors of HADH2 (Hydroxyacyl-Coenzyme A Dehydrogenase, Type II); also: nearly all actives have a fitted effect of over 60% in size
# Conditions: recombinant HADH2, NADH fluorescence, beta-hydroxybutyryl-CoA; activity change, negative = inhibition: at 57.1 µM (top of the series)
# Method in brief: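 E. coli-expressed His-tagged HADH2 tested at 20 nM in alkaline Tris buffer (pH 9.0); oxidation of 90 uM beta-hydroxybutyryl-CoA with 1 mM NAD+ tracked fluorimetrically for 4 min.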
# % is scaled to controls: 0 for no effect and ±100 for the full control effect; potency is read from the fitted curve at half-maximal effect; tags tell the direction and shape of the fitted curve.
Structure (SMILES),"activity change, negative = inhibition",Potency
O=C(Nc1ccncc1)Nc1ccc(F)cc1F,inactive: -3.73%,–
CC(=O)c1c(N2CCN(c3ccccc3)CC2)nc(=S)n(-c2ccccc2)c1C,–,"inconclusive: 31.6 µM [inhibitor, single point]"
CC1=CC2=NC(=O)CC(C)(C(=O)N(CC(=O)NC(C)(C)C)C3CCCC3)N2C=C1 (configuration not stated),–,"inconclusive: 39.8 µM [inhibitor, single point]"
N#CC1=C(N)OC(c2ccccc2)=C(C#N)C1c1ccc2c(c1)OCO2 (configuration not stated),–,active: 20 µM
Cc1ccc(C2CC(C(F)(F)F)n3nc(C(=O)NCC4CCCO4)cc3N2)cc1 (configuration not stated),inactive: 10.2%,–
COC(=O)CS,–,"inconclusive: 6.31 µM [inhibitor, full curve]"
CCOc1ccc(N(CC(=O)NCCSc2ccccn2)S(C)(=O)=O)cc1,–,"inconclusive: 5.01 µM [inhibitor, full curve, poor fit]"
COc1ccccc1Oc1c(C)oc2c(CN3CCN(CCO)CC3)c(O)ccc2c1=O,–,"inconclusive: 25.1 µM [inhibitor, single point]"
CC(C)(C)c1nnc2sc(SCC(=O)c3cccs3)nn2c1=O,–,"inconclusive: 31.6 µM [inhibitor, single point]"
O=C(O)c1ccncc1.O=C(O)c1ccncc1.[Cl][Pt]([Cl])([Cl])[Cl],–,active: 0.501 µM
COc1ccc(CNc2ccnc(-c3ccc4c(c3)OCO4)n2)c(OC)c1,inactive: -8.86%,–
COc1ccc(N2CCCn3c2nc2c3c(=O)n(Cc3ccc(F)cc3)c(=O)n2C)c(OC)c1,inactive: 0.555%,–
O=C(Cc1cn2ccsc2n1)OCc1nc2ccccc2s1,–,"inconclusive: 39.8 µM [inhibitor, single point]"
Cc1ccc2c(c1)NC(=O)C(CC(=O)NCCCN1CCN(c3cc(Cl)ccc3C)CC1)O2 (configuration not stated),–,"inconclusive: 31.6 µM [inhibitor, single point]"
CC(=O)n1nc(-c2ccccc2)nc1NCc1ccc(F)cc1,inactive: 21.8%,–
CC(Nc1nc(N2CCCC2)nc2ccccc12)c1ccccc1 (configuration not stated),–,"inconclusive: 31.6 µM [inhibitor, single point]"
CCOC(=O)c1c(CN2CCCCC2)n(C)c2ccc(OC)c(S(=O)(=O)c3ccccc3)c12,inactive: -0.461%,–
Cc1ccc(C)c(S(=O)(=O)NCCOC(=O)Nc2sc(=S)n(C)c2C)c1,–,"inconclusive: 3.16 µM [inhibitor, partial curve]"
COc1ccc(-c2nnc(NC(=O)c3ccc(S(=O)(=O)N4COCC4(C)C)cc3)o2)cc1,–,"inconclusive: 20 µM [inhibitor, single point]"

Structure (SMILES),"activity change, negative = inhibition",Potency
O=C(O)c1ccc(Cl)cc1NC(=O)C1CCCO1 (configuration not stated),–,"inconclusive: 3.98 µM [inhibitor, single point]"
CCOc1ccc(-c2c(C#N)c(N)nc3c2c(=O)n(C)c(=O)n3C)cc1OC,–,"inconclusive: 31.6 µM [inhibitor, single point]"
c1ccc2[nH]c(NCCN3CCOCC3)nc2c1,inactive: -7.67%,–
O=C(Nc1ccc2oc(-c3ccncc3)nc2c1)c1ccccc1F,–,"inconclusive: 39.8 µM [inhibitor, single point]"
O=c1cc(CO)oc(C(Nc2ccccn2)c2ccsc2)c1O (configuration not stated),–,"inconclusive: 2.51 µM [inhibitor, partial curve]"
CCN1C(=O)/C(=C2/SC(C)=C(C)N2CC)SC1=S,–,"inconclusive: 31.6 µM [inhibitor, single point]"
C(=C\c1ccco1)/C=N/n1cnnc1,–,"inconclusive: 25.1 µM [inhibitor, single point]"
CCN1C(=O)C(C(=O)Nc2ccc(OC)cc2)C2CC1(C)Oc1ccccc12 (configuration not stated),inactive: 1.53%,–
COc1ccc2cc3cc(C(=O)NCc4ccccn4)oc3nc2c1,–,active: 31.6 µM
O=C(CSc1nc2ccccc2c(=O)n1CC1CCCO1)NCC1CCCO1 (configuration not stated),inactive: 3.95%,–
O=C1CCCC2=C1C(c1cccs1)n1ncnc1N2 (configuration not stated),–,"inconclusive: 39.8 µM [inhibitor, single point]"
CCOc1ccc(/C(O)=C2/C(=O)C(=O)N(CC3CCCO3)C2c2ccc(C)o2)cc1 (configuration not stated),–,"inconclusive: 6.31 µM [inhibitor, single point]"
CCOC(=O)c1c(C)[nH]c(C(=O)COC(=O)c2ccccc2NC(=O)c2ccco2)c1C,–,"inconclusive: 39.8 µM [inhibitor, single point]"
COc1ccc2nc(C)cc(SCC(=O)O)c2c1,–,"inconclusive: 31.6 µM [inhibitor, single point]"
COc1ccc2c(c1)Cc1sc(NC(C)=O)nc1-2,–,"inconclusive: 39.8 µM [inhibitor, single point]"
COc1cc2cc(C(=O)Nc3ccccc3)c(N)nc2cc1OC,–,"inconclusive: 39.8 µM [inhibitor, single point]"
C=CCN1CCc2c(cc(O)c(O)c2Cl)C(c2cccc(C)c2)C1 (configuration not stated),–,active: 0.251 µM
CCc1cc(C(=O)Cc2ccc(F)cc2)c(O)cc1O,–,"inconclusive: 20 µM [inhibitor, partial curve]"
